# From the supplement of paper PMC8728848
# This is one part of the list.
# B1: rEtpA (Escherichia coli) (protein)
# chain: MNRIYKLKFDKRRNELVVVSEITTGVGNAKATGSVEGEKSPRRGVRAMALSLLSGMMIMAHPAMSANLPTGGQIVAGSGSIQTPSGNQMNIHQNSQNMVANWNSFDIGKGNTVQFDQPSSSAVALNRVVGGGESQIMGNLKANGQVFLVNPNGVLFGEGASVSTSGFVASTRDIKNDDFMNRRYTFSGGQKAGAAIVNQGELTTNAGGYIVLAADRVSNSGTIRTPGGKTVLAASERITLQLDNGGLMSVQVTGDVVNALVENRGLVSARDGQVYLTALGRGMLMNTVLNVSGVVEASGMHRQDGNIVLDGGDSGVVHLSGTLQADNASGQGGKVVVQGKNILLDKGSNITATGGQGGGEVYVGGGWQGKDSNIRNADKVVMQGGARIDVSATQQGNGGTAVLWSDSYTNFHGQISAKGGETGGNGGRVETSSHGNLQAFGTVSASAKKGKAGNWLLDSADITIVNGSNVSKTETTQSPPHTQFAPTAAGSAVSNTSINNRLNNGTSVTILTHRTRTGTAQGGNITVNAAINKSNGSDVNLTLQAGGNITVNNSITSTEGKLNVNLSGARTSNGSITISNNANITTNGGDITVGTTNTSNRVNISINNTTLNASNGNIQLTGTGTDSGILFAGNNRLTASNIALTGNSTSGNAINLTGTATLNATNNITLTGSSTSGNAINLKGNNTLTASNITLTGESTSGNAINLTDTTGTTTLNATNNITMQGTRVQIKHSNITAGNFALNATVAGSEISNTTLTATNNINLAAKTNSASSGVYLKDARITSTNGSITANGTATANGKATHLDGNVTLNASNGRIKLTGNGHGSASGILFAGNNRLTASNIALTGNSTSGNAINLTGTATLNATNDITLTGSSTSGNAINLTGTATLNATNNITLTGSSTSGNAINLKGNNTLTASNITLTGESTSGNAINLTDTTGTTTLNATNNITMQGTRVQIKHSNITAGNFALNATVAGSEISNTTLTATNNINLAAKTNSASSGVYLKDARITSTNGSITANGTATANGKATHLDGNVTLNASNGRIKLTGNGHGSASGILFAGNNRLTASNIALTGNSTSGNAINLTGTATLNATNDITLTGSSTSGNAINLTGTATLNATNNITLTGSSTSGNAINLKGNNTLTASNITLTGESTSGNAINLTDTTGTTTLNATNNITMQGTRVQIKHSNITAGNFALNATVAGSEISNTTLTATNNINLAAKTNSASSGVYLKDARITSTNGSITANGTATANGKATHLDGNVTLNASNGRIKLTGNGHGSASGILFAGNNRLTASNIALTGNSTSGNAINLTGTATLNATNDITLTGSSTSGNAINLTGTATLNATNNITLTGSSTSGNAINLKGNNTLTASNITLTGESTSGNAINLTDTTGTTTLNATNNITMQGTRVQIKHSNITAGNFALNATVAGSEISNTTLTATNNINLAAKTNSASSGVYLKDARITSTNGSITTNGTATANGKATHLDGNVTLNASNGRIKLTGNGHGSASGILFAGNNRLTASNIALTGNSTSGNAINLTGTATLNATNDITLTGSSTSGNAINLTGTATLNATNNITLTGSSTSGNAINLKGNNTLTASNITLTGESTSGNAINLTDTTGTTTLNATNNITMQGTRVQIKHSNITAGNFALNATVAGSEISNTTLTATNNINLAAKTNSASSGVYLKDARITSTNGSITANGTAPANDNATYLDGNVTLNASNGSIKLTGNGNGSTSGILFAGNNTLTASNITLTGNSEVYWQKLGPEQKLISEEDLNSAVDHHHHHH
# Legend:
# Test in all cases: glycan array binding signal (z-score within array); higher = stronger binding
# Settings in all cases: glycan notation: IUPAC condensed, linker removed
# Neu5Ac(a2-8)Neu5Ac = molecular target: Neu5Ac(a2-8)Neu5Ac
# In short: (§1)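 Arrays were curated from the Consortium for Functional Glycomics database, 3228 in total, and kept only where the protein sequence was available. Binding is expressed as a within-array Z-score. This score was averaged across arrays of the same protein sequence at different concentrations or buffers and across linkers, and negative values can be read as non-binding.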
# [1] = molecular target: Neu5Ac(a2-8)Neu5Ac(a2-3)Gal(b1-3)GalNAc(b1-4)[Neu5Ac(a2-3)]Gal(b1-4)Glc
# In short: as §1
# [2] = molecular target: Neu5Ac(a2-8)Neu5Ac(a2-3)Gal(b1-3)GalNAc(b1-4)[Neu5Ac(a2-8)Neu5Ac(a2-3)]Gal(b1-4)Glc
# In short: as §1
# [3] = molecular target: Neu5Ac(a2-8)Neu5Ac(a2-3)Gal(b1-4)Glc
# In short: as §1
# [4] = molecular target: Neu5Ac(a2-8)Neu5Ac(a2-3)Gal(b1-4)GlcNAc
# In short: as §1
# [5] = molecular target: Neu5Ac(a2-8)Neu5Ac(a2-3)[Gal(b1-3)GalNAc(b1-4)]Gal(b1-4)Glc
# In short: as §1
# [6] = molecular target: Neu5Ac(a2-8)Neu5Ac(a2-3)[GalNAc(b1-4)]Gal(b1-4)Glc
# In short: as §1
# [7] = molecular target: Neu5Ac(a2-8)Neu5Ac(a2-8)Neu5Ac
# In short: as §1
# [8] = molecular target: Neu5Ac(a2-8)Neu5Ac(a2-8)Neu5Ac(a2-3)Gal(b1-4)Glc
# In short: as §1
# [9] = molecular target: Neu5Ac(a2-8)Neu5Ac(a2-8)Neu5Ac(a2-3)[Gal(b1-3)GalNAc(b1-4)]Gal(b1-4)Glc
# In short: as §1
# [10] = molecular target: Neu5Ac(a2-8)Neu5Ac(a2-8)Neu5Ac(a2-3)[GalNAc(b1-4)]Gal(b1-4)Glc
# In short: as §1
# [11] = molecular target: Neu5Ac(a2-8)Neu5Ac(a2-8)Neu5Ac(a2-8)Neu5Ac(a2-3)[GalNAc(b1-4)]Gal(b1-4)Glc
# In short: as §1
# [12] = molecular target: Neu5Ac(a2-8)Neu5Gc(a2-3)Gal(b1-4)GlcNAc
# In short: as §1
# [13] = molecular target: Neu5Ac(b2-6)Gal(b1-4)GlcNAc
# In short: as §1
# Neu5Ac(b2-6)GalNAc = molecular target: Neu5Ac(b2-6)GalNAc
# In short: as §1
# [14] = molecular target: Neu5Ac9Ac(a2-3)Gal(b1-3)GlcNAc
# In short: as §1
# [15] = molecular target: Neu5Ac9Ac(a2-3)Gal(b1-4)GlcNAc
# In short: as §1
# [16] = molecular target: Neu5Ac9Ac(a2-6)Gal(b1-4)GlcNAc
# In short: as §1
# [17] = molecular target: Neu5Gc(a2-3)Gal(b1-3)GlcNAc
# In short: as §1
# [18] = molecular target: Neu5Gc(a2-3)Gal(b1-3)[Fuc(a1-4)]GlcNAc
# In short: as §1
# Neu5Gc(a2-3)Gal(b1-4)Glc = molecular target: Neu5Gc(a2-3)Gal(b1-4)Glc
# In short: as §1
# [19] = molecular target: Neu5Gc(a2-3)Gal(b1-4)GlcNAc
# In short: as §1
# [20] = molecular target: Neu5Gc(a2-3)Gal(b1-4)GlcNAc(b1-3)Gal(b1-4)GlcNAc(b1-2)Man(a1-3)[Neu5Gc(a2-3)Gal(b1-4)GlcNAc(b1-3)Gal(b1-4)GlcNAc(b1-2)Man(a1-6)]Man(b1-4)GlcNAc(b1-4)GlcNAc
# In short: as §1
# [21] = molecular target: Neu5Gc(a2-3)Gal(b1-4)[Fuc(a1-3)]GlcNAc
# In short: as §1
# [22] = molecular target: Neu5Gc(a2-6)Gal(b1-4)GlcNAc
# In short: as §1
# Neu5Gc(a2-6)GalNAc = molecular target: Neu5Gc(a2-6)GalNAc
# In short: as §1
# [23] = molecular target: Neu5Gc(a2-8)Neu5Ac(a2-3)Gal(b1-4)GlcNAc
# In short: as §1
# [24] = molecular target: Neu5Gc(a2-8)Neu5Gc(a2-3)Gal(b1-4)GlcNAc
# In short: as §1
# [25] = molecular target: Neu5Gc(a2-8)Neu5Gc(a2-3)Gal(b1-4)GlcNAc(b1-3)Gal(b1-4)GlcNAc
# In short: as §1
# [26] = molecular target: Neu5Gc(a2-8)Neu5Gc(a2-6)Gal(b1-4)GlcNAc
# In short: as §1
# [27] = molecular target: Neu5Gc(b2-6)Gal(b1-4)GlcNAc
# In short: as §1
binder,measurement,setting,value
B1,glycan array binding signal (z-score),Neu5Ac(a2-8)Neu5Ac,-0.08
same,glycan array binding signal (z-score),[1],-0.199
same,glycan array binding signal (z-score),[2],-0.138
same,glycan array binding signal (z-score),[3],-0.337
same,glycan array binding signal (z-score),[4],-0.399
same,glycan array binding signal (z-score),[5],1.42
same,glycan array binding signal (z-score),[6],0.026
same,glycan array binding signal (z-score),[7],-0.268
same,glycan array binding signal (z-score),[8],-0.007
same,glycan array binding signal (z-score),[9],-0.42
same,glycan array binding signal (z-score),[10],-0.325
same,glycan array binding signal (z-score),[11],-0.33
same,glycan array binding signal (z-score),[12],-0.451
same,glycan array binding signal (z-score),[13],-0.386
same,glycan array binding signal (z-score),Neu5Ac(b2-6)GalNAc,-0.291
same,glycan array binding signal (z-score),[14],-0.064
same,glycan array binding signal (z-score),[15],-0.273
same,glycan array binding signal (z-score),[16],-0.29
same,glycan array binding signal (z-score),[17],-0.173
same,glycan array binding signal (z-score),[18],-0.198
same,glycan array binding signal (z-score),Neu5Gc(a2-3)Gal(b1-4)Glc,-0.133
same,glycan array binding signal (z-score),[19],-0.194
same,glycan array binding signal (z-score),[20],-0.396
same,glycan array binding signal (z-score),[21],-0.291
same,glycan array binding signal (z-score),[22],0.192
same,glycan array binding signal (z-score),Neu5Gc(a2-6)GalNAc,-0.017
same,glycan array binding signal (z-score),[23],-0.108
same,glycan array binding signal (z-score),[24],-0.334
same,glycan array binding signal (z-score),[25],-0.353
same,glycan array binding signal (z-score),[26],-0.418
same,glycan array binding signal (z-score),[27],-0.189
